The source gives no read counts; variants with many changes may rest on few reads.

B1: OR4K15 (parent)
chain: GUUAACGGUCAUAGGCCAUGGAAACUAGGAGCACCAUUUCGCUGCCAGUGAAGAAAUGAACAAAGAAAAUCUGGGCCAGGCAGGCAUCAAAAGAAAUAGUCUUGCGCUCAACCAGAAAGUCUGUAAUCAUUUUAAGGGUA

The variants in this data set derive from B1. Description: self-cleavage, relative activity (ratio to wild type); higher = more cleavage; in vitro, sequencing; the parent is a self-cleaving ribozyme.
For the variant U26C A56G A78G, the self-cleavage was 0.3. As for U26C G73A C81U A117G U132C, the self-cleavage was found to be 0.21. On to A30G A92U A98G U102C A117G A135G, for which the self-cleavage is 1.13. Regarding A30G A52U A78G, the self-cleavage was 0.29. With A30G U127A U130C U132C, the self-cleavage came out at 1.38.

With A30G A55G A59G, the self-cleavage turned out to be 0.49. As to U26C G93A A117G U132C, the self-cleavage came to 2.17.

Take A30G U49A A66G A96G: the self-cleavage amounted to 1.62. The same measure for A30G A60G A92G A114U: 0.03; for A30C C109U A129U: 0.18. Regarding A30G A117G A118U, the self-cleavage came out at 0.8.

As to A30G A78G A86U U122C, the self-cleavage was 0.22. In the case of U26C A60G A92U, the self-cleavage came out at 1.89.

On to A27G A47G A59G, for which the self-cleavage amounted to 0.73. The same measure for A27G U57C G65U U131C: 0.97; for G29A A69G A91G C105U: 0.06; for A30G A56G A64G A96G: 1.73. Turning to U26C A92G U102C U120C, the self-cleavage is 0.78. As for A30G G75C A89U A98G U103A A126G, the self-cleavage is 0.01. For the variant A30G A36G U100C U122A A126G, the self-cleavage worked out at 1.74. As for A30G U43A A69G U108C, the self-cleavage stood at 0.03. With U26C A56G A59U, the self-cleavage was determined as 0.94. In the case of A27G U103C U120C, the self-cleavage amounted to 0.68. Take A30G U37C A51G A56U U127C: the self-cleavage came out at 1.05.

For the variant G29C U39C A78U, the self-cleavage was found to be 0. In the case of A30G A116G U127C it was 0.53. The same measure for A27G A52G U132C: 0.83. On to A30G U43A A67G A90G, for which the self-cleavage came out at 1.56. Consider A30G A52G U130C U131C, for which the self-cleavage came out at 1.12. The same measure for A30G A59G A67G: 1.47; for U26C U39A U43C A64G A86G: 1.02; for A27U A69U A90G A129G: 0.57.

Consider A30C A67G A110G, for which the self-cleavage came to 0.12. As for G29U A33G U49C A90G, the self-cleavage came to 0.91.

For the variant A30G A52G A78U U100C A110U U133A, the self-cleavage worked out at 0.09. Regarding A30G A66G U103G, the self-cleavage stood at 0.11. As to A30G A59G U87C A92G U127C, the self-cleavage was found to be 1.03. On to A30G A54G A125G, for which the self-cleavage was determined as 0.28. Take G29A A68G A116G U132A: the self-cleavage stood at 0.3. As for A27C A52G A111G, the self-cleavage is 0.03. As for A30G A51G A69G U131C, the self-cleavage was determined as 0.98. As to A30G A47G A78C A90G, the self-cleavage is 0.18. Turning to A27G U37A U87A A129G U132C A140G, the self-cleavage is 0.75. For the variant A27G A68G A82G U131C, the self-cleavage was 0.38. For the variant A30G U38C U43C U49C U127C, the self-cleavage was determined as 0.84. The same measure for U26C A94G U120A U133C: 1.94; for A30G U39G A92U: 1.65; for A30G A98G G137U: 0.84.

Turning to A30G G44A A47G, the self-cleavage is 1.67.

For the variant U26C G31U A66G A89G A90G A95G, the self-cleavage came to 2.08. Consider A27U A69G A78U U87C U108C, for which the self-cleavage stood at 0. The same measure for A30G A47C A62G A67G A126G: 0.73; for U26C U43A A55G A86U A92G A117G U120C: 0.25; for A27U U49C A51U A66U A96G U132C: 1.55. With A30G U87C A94G, the self-cleavage amounted to 1.84. In the case of A30G A33U A111G, the self-cleavage stood at 0.04.

With G28U A59G G104U A126G, the self-cleavage worked out at 0.01. In the case of U26C A52G A116G, the self-cleavage turned out to be 0.36. The same measure for U26C A54G A86G U124C: 0.49; for G28A A98G U122C: 0.04. The same measure for A30G C34U A78G A92G U102C: 0.38; for U26C A59G A68G: 1.27.

Turning to U26C A60G A82G, the self-cleavage was found to be 0.37.

Turning to A27U U49C A94G, the self-cleavage turned out to be 1.45. For the variant A27G U49C A54G A94G A116G U127A, the self-cleavage was found to be 0.33. As to A30G A86G A111G A117G, the self-cleavage stood at 0.01. Consider A27U A117G A125G, for which the self-cleavage was 0.57. A27G U38C A51G: the self-cleavage is 1.63. U26C U37C U38A: the self-cleavage was determined as 1.62. Regarding U26C A69G A90G, the self-cleavage was 1.42. For the variant A27G A36G U49C A90G A111G U122G, the self-cleavage was determined as 0.01.

As for U26C A33G G75A U100C U108C U124A, the self-cleavage is 0.

For the variant A30G A89G A117G, the self-cleavage is 1.02. Regarding U26C U70C U122C, the self-cleavage was determined as 0.18.

As for A27G A30G A64G A69G, the self-cleavage is 0.52. On to A30G A54G U57C U103C, for which the self-cleavage is 0.55. Take A27G A47U U87C: the self-cleavage turned out to be 0.56. Consider U26C U38C A92G, for which the self-cleavage turned out to be 1.81.

As for A27U U43A U124A, the self-cleavage was 0.56.

In the case of U26C U70C A114G, the self-cleavage was 0.08. In the case of G28U A33G G83C A91G U122A, the self-cleavage was 0.04. As to G29U A30C A63G A110G A116G, the self-cleavage was 0.09. For A27G U39A A68G U72C, the self-cleavage amounted to 0.77. A30G U43A U122C U130C: the self-cleavage came out at 1.1.

The record behind these values is the RNAGym collection of RNA variant scans (doi:10.7554/elife.90254).
